# Whole data set: some 33,000 sequences, median “E-score (-0.5 to 0.5)” near -0.016, cut for the highest 2% near 0.32. The list shows a part of the results.
# Target: T1, Stp1 (UniProt B3LFK1)
# T1 sequence: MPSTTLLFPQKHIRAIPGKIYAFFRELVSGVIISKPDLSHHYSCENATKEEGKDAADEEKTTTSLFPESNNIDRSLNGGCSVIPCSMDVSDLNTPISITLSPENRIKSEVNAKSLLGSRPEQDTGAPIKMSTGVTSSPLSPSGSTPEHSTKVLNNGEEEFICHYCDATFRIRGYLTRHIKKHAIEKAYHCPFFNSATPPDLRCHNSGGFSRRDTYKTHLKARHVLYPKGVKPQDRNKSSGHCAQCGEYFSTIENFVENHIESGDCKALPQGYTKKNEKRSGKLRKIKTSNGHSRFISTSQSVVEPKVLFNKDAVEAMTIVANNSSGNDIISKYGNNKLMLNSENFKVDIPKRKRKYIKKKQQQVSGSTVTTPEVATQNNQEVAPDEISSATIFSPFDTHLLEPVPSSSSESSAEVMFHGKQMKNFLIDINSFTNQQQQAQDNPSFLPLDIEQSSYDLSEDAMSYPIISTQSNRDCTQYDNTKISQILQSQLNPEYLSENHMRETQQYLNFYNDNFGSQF
# Assay: PBM E-score (8-mer binding enrichment) (E-score (-0.5 to 0.5)); higher = stronger / more preferred TF binding; most listed sequences are background and not binding sites
# Settings: protein concentration: 200 nM; construct: GST-full length
# Experimental: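 Universal 'all 10-mer' protein binding microarrays (Agilent AMADID 015681) probed with GST-tagged S. cerevisiae TFs (full-length or DBD) made by in vitro transcription/translation (PURExpress), about 100-200 nM. Bound TF was detected with fluorescent anti-GST. Each ungapped 8-mer (which stands for itself and its reverse complement) is scored by the PBM enrichment score (E-score), a modified Wilcoxon-Mann-Whitney statistic from -0.5 to +0.5, computed with the Universal PBM Analysis Suite. Scale: above 0.35 generally sequence-specific binding.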
row,Sequence,PBM E-score
1,AAACCTAC,-0.0505
2,CACCGTGA,-0.114
3,ACGCCGCT,0.423
4,ATGATCAC,0.0539
5,ACGCAAGC,-0.126
6,TCTTCTAA,0.185
7,CATAGTCC,-0.0737
8,GATCTGCA,-0.197
9,TAATTTAA,0.174
10,AGAACCAT,0.0663
11,CAATTCTA,-0.00449
12,ACCTGCAA,-0.152
13,CGCCAAGA,-0.132
14,ATACATGA,-0.0755
15,GCCGCTAA,0.313
16,ATTCATGG,0.0335
17,AGCTGTAC,-0.0972
18,CATTGAAA,0.149
19,CCCATGGA,-0.183
20,CCGCCTCC,-0.0913
21,GCACCACA,0.151
22,TAACGAGA,-0.12
23,AGCACCAG,-0.204
24,AAAACCAT,0.0744
25,AGATGTGC,-0.0497

row,Sequence,PBM E-score
1,CGGTGGCA,-0.0169
2,TTATTGAA,0.0619
3,AATAGGTA,-0.0154
4,AAGTTCTA,-0.0481
5,CGACCTTA,0.0223
6,ACACTGGG,-0.235
7,ATATCTTA,0.174
8,TCATCTCA,-0.0321
9,CCGATGTC,-0.131
10,CAGCTAAC,-0.171
11,ACGCCAGG,-0.14
12,AACTTACT,-0.182
13,GGAATGCC,0.242
14,GAGTCACC,-0.144
15,CGCTTGTA,0.0756
16,AAAGGGAG,-0.205
17,CTATTGTA,0.228
18,GCCGGCAA,0.106
19,ACCTAGGA,-0.124
20,AGAAGACT,-0.15
21,ACGTCCAG,-0.253
22,ATAATTTA,0.199
23,GCTCATTA,0.0806
24,GTTGGAAA,0.167
25,ATTACGGC,0.341

row,Sequence,PBM E-score
1,TACGTTAA,-0.048
2,AGAATCTC,-0.0977
3,CGTACCCA,-0.0511
4,AGTGCGAA,-0.103
5,CTAGCCAA,0.0204
6,ATCCCTCA,-0.107
7,AATACTCT,0.146
8,CATTTGCG,0.203
9,AGGCATAT,0.0894
10,AAACAGAG,-0.0163
11,ATACCTTG,0.0388
12,ATAGGAAC,0.00431
13,GGTATACA,-0.0289
14,CCGGCCCG,-0.15
15,CGACCGTA,-0.012
16,CCACCCGA,-0.144
17,ACGATTGA,0.0149
18,CAGAGTTA,0.0347
19,GAGCCCTC,-0.0998
20,CTTCAAGC,0.0107
21,GTGCTATA,0.0304
22,GGGTTCCA,-0.286
23,ACTGCAGG,-0.194
24,ATGATAAA,0.0859
25,CATCTAGG,-0.262

row,Sequence,PBM E-score
1,CTTCGTAA,0.0463
2,CCTAATAA,0.0583
3,CCCCAAAA,-0.0767
4,ATATACGG,0.282
5,GGATACGA,-0.0152
6,ATAAGCCC,-0.243
7,CAGGCCTG,-0.158
8,CGCAGGGA,-0.185
9,ACTCGATG,-0.0609
10,ACTGGGTG,-0.267
11,AAAACCCA,0.124
12,GCTCGCAA,0.0384
13,ACTCTTTC,-0.15
14,CCTTCTGA,-0.0316
15,ATCTAGAA,0.07
16,CCTCAGGA,-0.191
17,ATATCAAA,0.167
18,TAGATCTA,0.0708
19,AGCCGTTC,0.424
20,GGTCGGAC,-0.175
21,CGCAAGCG,-0.134
22,TACCCCTA,-0.273
23,AGTGTAGA,-0.0893
24,GCTACCCA,-0.203
25,AACTGGGA,-0.088

row,Sequence,PBM E-score
1,AGAGGGTC,-0.317
2,AAAAAGGG,-0.155
3,AGGGAAAA,0.0119
4,GACAGAGC,-0.227
5,CAACACAC,0.0261
6,AAGTCGTC,-0.255
7,CTGCATTC,-0.111
8,ACTAGACC,-0.0753
9,AACTCGCC,0.112
10,ATCGGTGC,0.0436
11,AATCATTC,0.146
12,ACACAACG,0.167
13,ATACAAAG,0.115
14,ACTTACCG,0.172
15,GGAGGCAC,0.148
16,CACCTGTA,0.0319
17,ATCGCTAA,-0.00855
18,GCACACGA,0.177
19,CGAGGGCA,0.124
20,ACGTACGG,0.292
21,ACGCATGG,0.0452
22,GATATCGC,0.108
23,CTGCTAAG,-0.177
24,GAATAGAA,0.205
25,AGACCGAA,0.036

row,Sequence,PBM E-score
1,AAGCCGTA,0.398
2,AAGGCAGT,0.103
3,AAGGCATA,0.181
4,GTGGGTCA,-0.142
5,ACAAAGAA,0.147
6,GAATAAGC,-0.0414
7,GATAATGC,0.143
8,GATCGGAA,-0.149
9,ATTAACTG,0.105
10,GTCTCCTA,-0.292
11,TGCTAGAA,0.0584
12,CTGAGGCC,-0.152
13,AACAGCGT,0.0405
14,CGTGACGC,0.226
15,CAAACCCC,-0.196
16,AATCAGCT,0.00157
17,TCACTCGA,-0.0257
18,CGAATAAA,0.179
19,CGAGGCAA,0.359
20,AGTTGCTA,0.129
21,CAGACACA,0.0457
22,CACGGGCG,0.0844
23,CTAGGGTC,-0.205
24,AGCCTTGA,-0.0777
25,AGGCACAG,0.133

row,Sequence,PBM E-score
1,ATCGGTAA,0.0314
2,ATCTACAG,0.129
3,CAATGTGA,0.179
4,GAGCTCAC,-0.113
5,AAGTCTCT,-0.368
6,AGACGGGC,0.0775
7,CCTACTTA,-0.0676
8,ACAGACAA,0.163
9,GCTGGCCA,-0.194
10,GTATTTCA,0.11
11,CAGGGACA,-0.015
12,AGCTCGGA,-0.226
13,CGCACGCA,-0.00526
14,ACGGATTC,0.121
15,TATGCGGA,0.207
16,CGAGTACG,0.00768
17,CAACTACG,-0.0551
18,GAGGCGCC,0.414
19,CGTTGTTA,0.107
20,TAGGAAGA,-0.355
21,AGTGTTGG,-0.103
22,CACCCCAC,-0.169

# From the supplement of paper PMC3334620
